Reference: paper PMC6919601, “Identification of Plasmodium dipeptidyl aminopeptidase allosteric inhibitors by high throughput screening” (PLoS ONE, 2019)
In all, about 110,000 compounds went through this assay and about 230 (0.21%) showed an effect of 50% or more. This is one part of the list.

biological target: DPAP1 (Plasmodium falciparum, UniProt Q8IIJ9); test: primary screen, percent inhibition; read by cleavage of a fluorogenic dipeptide substrate; higher = more effect of the substance; design: species or system P. falciparum D10 trophozoite lysates; single well
Sequence (Q8IIJ9 whole entry, looked up): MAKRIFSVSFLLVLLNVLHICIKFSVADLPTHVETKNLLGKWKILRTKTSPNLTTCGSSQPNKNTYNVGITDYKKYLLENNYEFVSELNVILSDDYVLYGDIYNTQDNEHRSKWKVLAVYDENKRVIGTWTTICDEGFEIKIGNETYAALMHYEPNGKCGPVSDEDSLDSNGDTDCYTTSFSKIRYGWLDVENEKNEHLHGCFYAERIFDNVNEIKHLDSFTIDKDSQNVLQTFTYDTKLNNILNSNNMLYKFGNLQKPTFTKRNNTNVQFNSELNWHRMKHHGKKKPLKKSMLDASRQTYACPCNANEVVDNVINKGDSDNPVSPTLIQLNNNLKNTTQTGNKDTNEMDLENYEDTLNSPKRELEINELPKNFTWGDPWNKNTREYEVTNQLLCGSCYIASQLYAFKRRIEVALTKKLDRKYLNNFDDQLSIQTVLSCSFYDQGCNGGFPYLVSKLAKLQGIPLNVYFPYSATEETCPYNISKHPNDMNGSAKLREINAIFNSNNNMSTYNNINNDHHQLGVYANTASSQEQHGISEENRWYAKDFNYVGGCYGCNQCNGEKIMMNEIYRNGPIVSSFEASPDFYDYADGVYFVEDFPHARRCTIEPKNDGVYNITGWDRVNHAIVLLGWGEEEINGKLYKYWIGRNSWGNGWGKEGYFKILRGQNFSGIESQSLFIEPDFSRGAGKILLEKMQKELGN
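Also: 30 min substrate incubation versus DMSO and 10 µM JCP410 controls.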

Compound	% Inhibition @ 10 uM [%]
Cc1cc(C)nc(NS(=O)(=O)c2ccc(Br)cc2)n1	-6.52
Cc1nn(C)cc1NC(=O)Cn1nc(C(F)(F)F)cc1C1CC1	-1.36
CCc1cccc(NC(=O)c2c(Cl)c(C)nn2C)c1	-3.26
CCCCCCN1C(=O)C(O)=C(C(=O)c2ccccc2)C1c1ccc(O)c(OC)c1 (stereo not drawn)	4.55
Cc1ccc(-c2nc(NC(=O)CCc3ccccc3)sc2C)cc1	0.685
Cc1ccc2c(c1)/C(=C1/SC(Nc3ccc(C)c(Cl)c3)=NC1=O)C(=O)N2	-0.511
COc1ccc(C(=O)C2=C(O)C(=O)N(CCCN(C)C)C2c2cccc(Oc3ccccc3)c2)cc1 (stereo not drawn)	2.17
COc1ccc(C(c2c(NC(C)=O)sc3c2CCCC3)N2CCN(CCO)CC2)cc1OC (stereo not drawn)	-5.41
O=C(CSc1nc[nH]n1)Nc1ccnc2ccccc12	-4.78
CN1CCC(N(C)C2CCN(C)CC2)CC1	-5.44
COc1cc(S(=O)(=O)N2CCN(Cc3ccc4c(c3)OCO4)CC2)c(OC)cc1Cl	-7.33
Cc1ccc(S(=O)(=O)N(CC(=O)NC(C)C)c2cc(Cl)ccc2C)cc1	1.1
COc1ccc(N(CC(=O)Nc2ccc(F)cc2)S(C)(=O)=O)cc1OC	-1.95
Cc1oc2ccc(O)c(CN(C)C3CCN(C)CC3)c2c1C(=O)NC1CCCC1	2.14
CCC(C(=O)NCc1ccccc1Cl)n1nc(C)c2c(C)n(-c3ccccc3)nc2c1=O (stereo not drawn)	-1.39
COCCCNC(=O)CNC(=S)N(Cc1cc(OC)c(OC)c(OC)c1)C1CCCC1	-0.406
Cc1ccc(NC(=O)c2nc3ccccc3s2)cc1	5.61
CCOC(=O)c1ccc(CNC(=O)Cn2c(-c3nonc3N)nc3ccccc32)o1	-2.05
CCOC(=O)C1CCN(Cc2ccc(Cl)cc2Cl)CC1	4.73
O=C(NCc1ccc(Cl)cc1)C(=O)NCC1CCCO1 (stereo not drawn)	-1.6
CCCN1CCN(CCCNC(=O)CN2C(=O)CSc3c2c(C)nn3-c2ccccc2)CC1	2.99
CCOC(=O)N1CCN(CC(c2ccccc2)c2ccccc2)CC1	1.08
Cc1nn(-c2ccccc2)c(C)c1NC(=O)Cc1cccs1	-0.999
COc1ccc(CN2CCN(Cc3cccc(OC)c3)CC2)cc1	-1.37
COc1ccc(NC(=O)c2ccc(C3SCC(=O)N3CCc3ccccc3)cc2)cc1OC (stereo not drawn)	0.145
O=C(O)CCC(=O)Nc1ccc(N2CCN(c3cccc(Cl)c3Cl)CC2)cc1	0.83

Compound	% Inhibition @ 10 uM [%]
Cc1ccc(S(=O)(=O)N(C)CC(=O)Nc2ccccc2C(N)=O)cc1	-0.872
CCOc1cccc(C(=O)C2=C(O)C(=O)N(Cc3ccncc3)C2c2ccccc2)c1 (stereo not drawn)	1.93
COc1ccc(C2N[C@H](C(=O)O)CS2)c(OC)c1 (stereo partly drawn)	0.132
COc1cc(C2C3=C(O)CC(C)(C)CC3=NC(C)=C2C(=O)N2CCCCC2)cc(Cl)c1O (stereo not drawn)	-2.64
COC(=O)c1sccc1NC(=S)N1CCc2ccccc2C1	8.44
CNC(=O)C(C)n1ccc2cc(S(=O)(=O)N3CCCC3)ccc21 (stereo not drawn)	2.82
OC1CCCN(Cc2ccc(F)c(Br)c2)C1 (stereo not drawn)	3.9
COc1ccc(CNC(=O)c2cc(=O)c3ccc(C)c(C)c3o2)cc1	-13.1
O=C(c1ccncc1)C12CN3CN(CN(C3)C1)C2	0.878
COc1ccc(CCNC(=O)c2cncc(NS(=O)(=O)c3ccc(C)cc3)c2)cc1OC	2.01
O=C(Nc1nc2ccccc2s1)C1CCCC1	-4.86
CC(C)CC(=O)NC1(C(F)(F)F)NC(=O)N(CC(C)C)C1=O (stereo not drawn)	0.221
COc1ccc(CCNCc2c(C(=O)O)c(C)n(Cc3cc(C)ccc3C)c2C)c(OC)c1OC	-5.49
COc1ccc(F)cc1CN1CCN(c2ncnc3sc4c(c23)CCCC4)CC1	0.884
OC1CCN(Cc2ccc(C(F)(F)F)cc2)CC1	3.9
O=C(O)CC(Cc1ccc(Cl)cc1)C(=O)Nc1ccccc1 (stereo not drawn)	-1.98
COc1cc(NC(=O)c2cc3ccccc3o2)c(OC)cc1Cl	-2.73
O=C(Cc1cccs1)Nc1cccc(/C=C/C(=O)c2ccccc2)c1	-4.75
O=S(=O)(c1ccc(-c2csc(Nc3cccc4ccccc34)n2)cc1)N1CCOCC1	-4.89
COC(=O)c1cc(-c2cccs2)nc2ccc(Br)cc12	2.41
CCOC(=O)c1sc(Nc2nc(NC(C)C)nc(NC(C)C)n2)nc1C	-3.08
COc1ccc(OC)c(C2CC(c3cccs3)Nc3ncnn32)c1 (stereo not drawn)	1.88
Cn1c(NCCO)nc2c(c1=O)C1(CCCCC1)Cc1ccccc1-2	-2.63
Cc1ccc(NC2=C(Cl)C(=O)N(Cc3ccccc3)C2=O)cc1C	-0.68
Cc1ccc(S(=O)(=O)N2c3ccccc3C(C)(c3ccccc3)CC2(C)C)cc1 (stereo not drawn)	1.24
Cc1cc(C)c(C=C2C(=O)c3ccccc3C2=O)cc1C	-2.42

Compound	% Inhibition @ 10 uM [%]
CCOC(=O)N1CCC(N2CCN(c3ccccc3OCC)CC2)CC1	-2.95
CCN(CC)C(=O)Cn1cc(SCC(=O)NCC2CCCO2)c2ccccc21 (stereo not drawn)	0.568
O=C(O)C(Cc1ccccc1)Nc1ncnc2sc3c(c12)CCC3 (stereo not drawn)	-1.47
Cc1ccc(C(=O)C2=C(O)C(=O)N(CC3CCCO3)C2c2ccc(F)cc2)o1 (stereo not drawn)	2.3
Cc1oc(-c2ccccc2F)nc1CS(=O)(=O)CC(=O)NCCN(C)C	-1.89
Cc1ccc(O)c(C(=O)c2cnc3c(c2)COc2ccccc2-3)c1	0.635
CC(NC(=O)C1CC(=O)N(c2ccc(Cl)cc2)C1)c1ccccc1 (stereo not drawn)	16.5
COc1ccc(C(=O)N2CCN(C(=O)COc3ccccc3)CC2)cc1	-4.7
CCOC(=O)/C(C#N)=C\c1ccc(-c2ccc(Cl)cc2Cl)o1	-6.68
CCCc1[nH]nc2c1C(c1cccc(Cl)c1)C(C#N)=C(N)O2 (stereo not drawn)	-5.14
CCN1CCC(NCCc2ccccc2Cl)CC1	0.565
CCc1ccccc1NC(=O)CC1Sc2ccccc2NC1=O (stereo not drawn)	-2.58
O=C(O)c1ccc(S(=O)(=O)N2CCCCC2)cc1	18.7
CC(C)CC(C(=O)NCC#N)c1cccc(-c2cnc3ccccc3c2)c1 (stereo not drawn)	-1.41
O=C1CC(N2CCN(c3ncccn3)CC2)C(=O)N1c1cccc(Br)c1 (stereo not drawn)	1.57
CCn1c(=N)n(CC(=O)c2ccccc2)c2ccccc21	1.62
CCCn1c(=N)c(C(N)=O)cc2c(=O)n3cc(C)ccc3nc21	1.97
N#CC1=C(N)Oc2cc(N)ccc2C1c1ccc([N+](=O)[O-])cc1 (stereo not drawn)	9.08
CCOC(=O)C1=C(CC)OC(N)=C(C#N)C1c1cccc(Cl)c1 (stereo not drawn)	-2
Cn1ccnc1C(O)(c1ccccc1)c1ccccc1	-5.48
CCN(CC)C(=O)CN(c1cc(C)ccc1C)S(C)(=O)=O	-5.88
COc1ccc(C(=O)Nc2nc(-c3nnn(-c4ccc(F)c(Cl)c4)c3C)ns2)cc1	-3.79
CCN1CCN(c2ncnc3[nH]cnc23)CC1	0.221
Cc1ccc(C(=O)Nc2nc(C)c(C(=O)N(C)C)s2)o1	4.11
Cc1ccc2onc(CNC(=O)N3C(C)CCCC3C)c2c1 (stereo not drawn)	-0.264
O=C(O)C1C2C=CC(C2)C1C(=O)Nc1nc2ccc(Br)cc2s1 (stereo not drawn)	-3.05

Compound	% Inhibition @ 10 uM [%]
Cc1nc(N2CCN(C)CC2)c2c(C)c(C(=O)NCc3ccccc3Cl)sc2n1	1.88
CN(Cc1cccc(O)c1)C1CCCCC1	-5.42
CCOC(=O)c1c(NC=O)sc2c1CCC2	3.06
CN1C(=O)C(O)(CC(=O)c2ccco2)c2ccccc21 (stereo not drawn)	2.09
O=C(Nc1nn2c(-c3ccccc3)nnc2s1)c1ccco1	10.7
Cc1ccc(C(=O)C2=C(O)C(=O)N(c3nnc(C)s3)C2c2ccc(C(C)(C)C)cc2)cc1 (stereo not drawn)	0.487
COC(=O)c1cc(S(=O)(=O)N(Cc2ccco2)CC2CCCO2)c[nH]1 (stereo not drawn)	-4.9
CCn1c(NCc2ccccc2C)nc2ccccc21	4.8
Cc1cc(Cl)nc(Cl)c1N	0.919
COc1ccc(NCN2C(=O)C3C4c5ccccc5C(c5ccccc54)C3C2=O)cc1 (stereo not drawn)	-21.2
O=C(COc1ccccc1Cl)Nc1ccc(Cl)c(Cl)c1	-7.63
O=C1CC(=O)N(CCC2=CCCCC2)C(=S)N1	1.74
COc1cc(S(=O)(=O)N2CCN(c3ccccc3)CC2)c(Cl)cc1Cl	-3.95
C=CCN1C(=O)S/C(=C/c2cc(C)n(CCOC)c2C)C1=O	-1.22
CCN(CC)C(=O)Cn1c(=O)cc(C(F)(F)F)c2c(C)nn(-c3cccc(Cl)c3C)c21	-2.85
CC(C)Oc1ccc(N2CC(C(=O)NC3=NCCS3)CC2=O)cc1 (stereo not drawn)	-3.24
COc1ccc(CCC(=O)Nc2cnc3ccccc3c2)cc1	-0.0108
CC(C)c1ccc(NC2=NS(=O)(=O)c3ccccc32)cc1	0.634
O=C(NC1CC1)c1cc(-c2ccc(Br)cc2)nc2ccccc12	26.8
O=S(=O)(c1ccc(Oc2ccccc2)cc1)N1CCCCCC1	-0.833
Cc1ccc(C)n1-c1nnc(N2CCCC(C(=O)NCc3cccnc3)C2)s1 (stereo not drawn)	0.828
Cc1oc(/N=C/c2ccc(Cl)cc2Cl)c(C#N)c1C	-7.3
O=C(Nc1ccccc1-n1cccc1)c1ccco1	6.08
CCO/C(O)=C1/C(C)=Nc2nc(SCc3ccccc3)nn2C1c1ccc(C)cc1 (stereo not drawn)	-1.01
